# Not every entry of the source has a single result; some have several. Only these are listed. There may be further records. The records of an entry repeat one measurement across runs, samples, wells, individuals or studies. A date in brackets names the month of the test.
# Tested on: NCI-H1618 multicellular tumor spheroid viability
# Assay: Anticancer human tumor NCI-H1618 cell line growth inhibition;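 further: spheroids exposed to agents for 7 days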
# Settings: for IC50: compound alone; for viability, T/C: stronger effect = lower value
# Source text: Multicellular complex tumor spheroid response to DNA repair inhibitors in combination with DNA-damaging drugs
# This study explores the anticancer activities of DNA-damaging drugs and inhibitors of DNA damage repair, both as single agents and in combinations. Complex tumor spheroids comprised of malignant cells, endothelial cells and mesenchymal stem cells served as an in vitro model for human solid tumors. This model system incorporates physiologically relevant features and patient-derived or established malignant cell lines with clinically relevant genetic alterations from many tumor types. Twenty-six patient-derived or established malignant cell lines were evaluated representing sarcoma, melanoma, small cell lung cancer (SCLC), non-small cell lung cancer (NSCLC), as well as bladder, ovarian and pancreatic cancers. The concentration ranges selected for each drug and investigational agent were based upon clinically achievable concentrations if the clinical Cmax of the agent was known.
# Compounds. The drugs and compounds olaparib (NSC753686), talazoparib (NSC767125), berzosertib (NSC777718), elimusertib (NSC800525), nedisertib (NSC802822), VX-984 (NSC792969), AZD-1390 (NSC803789), temozolomide (NSC362856), topotecan (NSC609699), trabectedin (NSC813783), staurosporine (NSC755774), and gemcitabine (NSC613327) were obtained from the National Cancer Institute (NCI) Developmental Therapeutics Program Chemical Repository. The FDA-approved anticancer drug set is available from the Developmental Therapeutics Program at https://dtp.cancer.gov/organization/dscb/obtaining/available_plates.htm. […] The stock solutions were prepared in dimethyl sulfoxide (DMSO, Sigma-Aldrich, St. Louis, MO, cat. D2650) at 400-fold the tested concentration and stored at -70 degrees C. Prior to their use, the stock solutions were diluted in fresh medium and the final DMSO concentration in the assay was 0.25% (v/v). All drugs and investigational agents were tested over a range starting from a high concentration at or near the clinical Cmax and decreasing in half-log increments. If the clinical Cmax for an agent had not been determined, the highest concentration tested was 10 microM.
# Cell Lines. The patient-derived cancer cell (PDC) lines: 156681-154-R-J1-PDC, 283228-195-R-J1-PDC, 287954-098-R-J1-PDC, 292921-168-R-J2-PDC, 349418-098-R-PDC, 425362-245-T-J1-PDC, 556581-035-R-J1-PDC, and BL0293-F563-PDC were received from the NCI Patient-Derived Models Repository (PDMR, https://pdmr.cancer.gov). The established cell lines HS-SY-2 (RRID:CVCL_8719), MPNST, and SYO-1 (RRID:CVCL_7146) were obtained from the Sloan Kettering Institute. The alveolar soft parts sarcoma cell line ASPS-1 (RRID:CVCL_S738) was established at the NCI and grown from internal seed stocks. The following established cell lines were purchased from the American Type Culture Collection (ATCC, Manassas, VA): G-401 (ATCC, cat. CRL-1441, RRID:CVCL_0270), SW982 (ATCC, cat. HTB-93, RRID:CVCL_1734), VA-ES-BJ (ATCC, cat. CRL-2138, RRID:CVCL_1785), NCI-H719 (ATCC, cat. CRL-5837, RRID:CVCL_1582), NCI-H196 (ATCC, cat. CRL-5823, RRID:CVCL_1509), NCI-H841 (ATCC, cat. CRL-5845, RRID:CVCL_1595), NCI-H1618 (ATCC, cat. CRL-5879, RRID:CVCL_1480), NCI-H1876 (ATCC, cat. CRL-5902, RRID:CVCL_1503), DMS 114 (ATCC, cat. CRL-2066; RRID:CVCL_1174), NCI-H211 (ATCC, cat. CRL-5824; RRID:CVCL_1529), and SW 1271 (ATCC, cat. CRL-2177, RRID:CVCL_1716). The small cell lung cancer cell line COR-L88 was purchased from Sigma-Aldrich (cat. 92031917-1VL, RRID:CVCL_1141). The non-small cell lung cancer cell lines NCI-H226 (RRID:CVCL_1544) and NCI-H322M (RRID:CVCL_1557) were established at the NCI and grown from internal seed stocks. Pooled donor human umbilical vein endothelial cells (HUVEC, Lonza, cat. CC-2519) and human mesenchymal stem cells (hMSC, Lonza, cat. PT-2501) were purchased from Lonza (Walkersville, MD).
# Cell Culture. All cells were maintained in an incubator at 37 degrees C and 5% CO2 with 95% humidity. […]
smiles,measurement,setting,value
[2H]c1nc(C)nc([2H])c1-c1cc(NC[C@@H](C)c2cccc3c(C(=O)NC)ccnc23)ncn1,IC50,,"> 10 µM [2019-11] and < 31.6 nM, > 10 µM [2019-12]"
COc1cc2c(cc1O)CCNC21CSC2c3c(OC(C)=O)c(C)c4c(c3C(COC1=O)N1C(O)C3Cc5cc(C)c(OC)c(O)c5C(C21)N3C)OCO4 (stereo unspecified),"viability, T/C",compound 94.9 pM,"47.9, 63, 96.5, 75.5, 61.6, 59.2, 87, 45.4, 59.1, 65%"
Cn1ncnc1[C@H]1c2n[nH]c(=O)c3cc(F)cc(c23)N[C@@H]1c1ccc(F)cc1,IC50,,"< 9.49 nM, 171 nM [2019-11] and 156 nM [2019-12]"
Cn1nnc2c(C(N)=O)ncn2c1=O,"viability, T/C",compound alone 1 µM,"22.8, 24.6, 21.6, 82.1, 95.6, 87.2, 88.5, 84.5, 80, 22.5%"
same,"viability, T/C",compound alone 100 µM,"43.6, 67.5, 19.7, 31.5, 46.8, 45.3, 0.95, 32, 66.5, 34.9%"
same,IC50,run of 11/07/2019,"< 1 µM, 1.92 µM, 2.14 µM, 1.97 µM, 2.26 µM, 1.77 µM, 1.87 µM"
CC[C@@]1(O)C(=O)OCc2c1cc1n(c2=O)Cc2cc3c(CN(C)C)c(O)ccc3nc2-1,"viability, T/C",compound alone 0.003 µM,"89.7, 93.5, 89.4, 91.2, 93% [2019-11] and 26.6, 87, 75.8, 100, 89.7% [2019-12]"
same,"viability, T/C",compound alone 0.00949 µM,"52.1, 35.9, 49.6, 41.1, 51.1% [2019-11] and 16.9, 48.8, 26.5, 40.1, 45.5% [2019-12]"
same,"viability, T/C",compound alone 0.03 µM,"1.76, 1.33, 1.25, 1.59, 1.74% [2019-11] and 28.8, 5.05, 4.72, 3.43, 3.71% [2019-12]"
same,"viability, T/C",compound alone 0.0949 µM,"1.26, 1.75, 16.3, 1.85, 1.7% [2019-11] and 30.4, 4.1, 3.54, 4.45, 3.11% [2019-12]"
same,IC50,run of 12/16/2019,"< 3 nM, 9.14 nM, 5.48 nM, 7.86 nM, 8.44 nM"

# Reference: PubChem BioAssay AID1845206 (Molecular Pharmacology Branch, DTP, NCI, 2023)
